The labels stand for the following.
T1: RBFOX1 RRM RbFoxmut (Fox-RRM*) (Homo sapiens, UniProt Q9NWB1 109-208, R118D;E147R;N151S;E152T)
T1 sequence: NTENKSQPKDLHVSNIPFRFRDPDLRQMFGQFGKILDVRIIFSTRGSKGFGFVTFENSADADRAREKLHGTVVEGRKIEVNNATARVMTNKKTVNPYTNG

B1: UUCAUAA (DNA:RNA)
RNA: GGGAGACCGGAAUUCAGAUUGUCCUUCAUAAUUAAAUCCCGUCGUAGCCACCA
DNA 1: CAATCTGAATTCCGGTCTCCC
DNA 2: TGGTGGCTACGACGGGATT
B2: AUCGAUU (DNA:RNA)
RNA: B1 RNA with U25A, A28G, U29A, A30U, A31U
DNA 1: CAATCTGAATTCCGGTCTCCC
DNA 2: TGGTGGCTACGACGGGATT
B3: CCACGCC (DNA:RNA)
RNA: GGGAGACCGGAAUUCAGAUUGUCCCCACGCCUUAAAUCCCGUCGUAGCCACCA
DNA 1: CAATCTGAATTCCGGTCTCCC
DNA 2: TGGTGGCTACGACGGGATT
B4: GCCGUCA (DNA:RNA)
RNA: B1 RNA with U25G, U26C, A28G, A30C
DNA 1: CAATCTGAATTCCGGTCTCCC
DNA 2: TGGTGGCTACGACGGGATT
B5: GACGAUA (DNA:RNA)
RNA: B1 RNA with U25G, U26A, A28G, U29A, A30U
DNA 1: CAATCTGAATTCCGGTCTCCC
DNA 2: TGGTGGCTACGACGGGATT
B6: AGUGAAG (DNA:RNA)
RNA: B1 RNA with U25A, U26G, C27U, A28G, U29A, A31G
DNA 1: CAATCTGAATTCCGGTCTCCC
DNA 2: TGGTGGCTACGACGGGATT
B7: UAAUCCC (DNA:RNA)
RNA: B3 RNA with C25U, C26A, C28U, G29C
DNA 1: CAATCTGAATTCCGGTCTCCC
DNA 2: TGGTGGCTACGACGGGATT
B8: CGCGAAA (DNA:RNA)
RNA: B1 RNA with U25C, U26G, A28G, U29A
DNA 1: CAATCTGAATTCCGGTCTCCC
DNA 2: TGGTGGCTACGACGGGATT
B9: CCGAUCU (DNA:RNA)
RNA: B3 RNA with A27G, C28A, G29U, C31U
DNA 1: CAATCTGAATTCCGGTCTCCC
DNA 2: TGGTGGCTACGACGGGATT
B10: CUCAUCA (DNA:RNA)
RNA: B1 RNA with U25C, A30C
DNA 1: CAATCTGAATTCCGGTCTCCC
DNA 2: TGGTGGCTACGACGGGATT
B11: UUAACGG (DNA:RNA)
RNA: B1 RNA with C27A, U29C, A30G, A31G
DNA 1: CAATCTGAATTCCGGTCTCCC
DNA 2: TGGTGGCTACGACGGGATT
B12: AGGGCCC (DNA:RNA)
RNA: B3 RNA with C25A, C26G, A27G, C28G, G29C
DNA 1: CAATCTGAATTCCGGTCTCCC
DNA 2: TGGTGGCTACGACGGGATT
B13: UAGUUAA (DNA:RNA)
RNA: B1 RNA with U26A, C27G, A28U
DNA 1: CAATCTGAATTCCGGTCTCCC
DNA 2: TGGTGGCTACGACGGGATT
B14: AAACCAU (DNA:RNA)
RNA: B3 RNA with C25A, C26A, G29C, C30A, C31U
DNA 1: CAATCTGAATTCCGGTCTCCC
DNA 2: TGGTGGCTACGACGGGATT
B15: UGAGUAU (DNA:RNA)
RNA: B1 RNA with U26G, C27A, A28G, A31U
DNA 1: CAATCTGAATTCCGGTCTCCC
DNA 2: TGGTGGCTACGACGGGATT
B16: CGCAAAG (DNA:RNA)
RNA: B1 RNA with U25C, U26G, U29A, A31G
DNA 1: CAATCTGAATTCCGGTCTCCC
DNA 2: TGGTGGCTACGACGGGATT
B17: UUGGCGA (DNA:RNA)
RNA: B1 RNA with C27G, A28G, U29C, A30G
DNA 1: CAATCTGAATTCCGGTCTCCC
DNA 2: TGGTGGCTACGACGGGATT
B18: GAUGCUU (DNA:RNA)
RNA: GGGAGACCGGAAUUCAGAUUGUCCGAUGCUUUUAAAUCCCGUCGUAGCCACCA
DNA 1: CAATCTGAATTCCGGTCTCCC
DNA 2: TGGTGGCTACGACGGGATT
B19: ACCUGGC (DNA:RNA)
RNA: B3 RNA with C25A, A27C, C28U, C30G
DNA 1: CAATCTGAATTCCGGTCTCCC
DNA 2: TGGTGGCTACGACGGGATT
B20: GUACGAC (DNA:RNA)
RNA: B3 RNA with C25G, C26U, C30A
DNA 1: CAATCTGAATTCCGGTCTCCC
DNA 2: TGGTGGCTACGACGGGATT

The values below come from article PMC9911399, “Two distinct binding modes provide the RNA-binding protein RbFox with extraordinary sequence specificity”.

Substitutions are numbered along the chain they refer to; changes in the protein carry UniProt numbers. Some of the results follow.

The target of this experiment is T1, RBFOX1 RRM RbFoxmut (Fox-RRM*). Description: EMSA; HiTS-Eq, 1 nM pool, 10 min; buffer printed only for the single-RNA assays: 10 mM Tris pH 7.5, 150 mM NaCl, 3.4 mM EDTA, 0.001% NP-40, 30 C. The following applies: tags: His6 N-terminal (pET28a); label: 5' 32P. The method, boiled down: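 Purified wild-type or mutant RbFox RRM at increasing concentrations was equilibrated with 1 nM of 5′-radiolabelled RNA carrying 7 randomized nucleotides for 10 min in 50 µL. Unbound RNA was separated by 8% native PAGE and sequenced. Relative association constants came from read-count changes of each RNA species compared with the control reaction, normalised to the cognate motif.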
Consider B1, for which the binding signal is 0.114 KA relative to UGCAUGU. As to B2, the binding signal is 0.0813 KA relative to UGCAUGU. As for B3, the binding signal was 0.123 KA relative to UGCAUGU. In the case of B4, the binding signal is 0.0763 KA relative to UGCAUGU. The same measure for B5: 0.0832 KA relative to UGCAUGU. On to B6, for which the binding signal was 0.134 KA relative to UGCAUGU. Turning to B7, the binding signal is 0.0728 KA relative to UGCAUGU. With B8, the binding signal is 0.0949 KA relative to UGCAUGU.

In the case of B9, the binding signal was 0.0341 KA relative to UGCAUGU. As for B10, the binding signal is 0.125 KA relative to UGCAUGU. Take B11: the binding signal is 0.0728 KA relative to UGCAUGU. For the molecule B12, the binding signal was 0.0881 KA relative to UGCAUGU. The same measure for B13: 0.108 KA relative to UGCAUGU; for B14: 0.0885 KA relative to UGCAUGU. For B15, the binding signal was 0.11 KA relative to UGCAUGU. Take B16: the binding signal was 0.118 KA relative to UGCAUGU. The same measure for B17: 0.074 KA relative to UGCAUGU; for B18: 0.0831 KA relative to UGCAUGU; for B19: 0.125 KA relative to UGCAUGU. The same measure for B20: 0.0842 KA relative to UGCAUGU.
